# Experimental data taken from article PMC9911399, “Two distinct binding modes provide the RNA-binding protein RbFox with extraordinary sequence specificity”.
# Residue numbers refer to the chain shown, from its start. Some of the results follow.
# B1: CCGCUAC (DNA:RNA)
# RNA: GGGAGACCGGAAUUCAGAUUGUCCCCGCUACUUAAAUCCCGUCGUAGCCACCA
# DNA 1: CAATCTGAATTCCGGTCTCCC
# DNA 2: TGGTGGCTACGACGGGATT
# B2: GGUAACG (DNA:RNA)
# RNA: GGGAGACCGGAAUUCAGAUUGUCCGGUAACGUUAAAUCCCGUCGUAGCCACCA
# DNA 1: CAATCTGAATTCCGGTCTCCC
# DNA 2: TGGTGGCTACGACGGGATT
# B3: AUCGGUA (DNA:RNA)
# RNA: GGGAGACCGGAAUUCAGAUUGUCCAUCGGUAUUAAAUCCCGUCGUAGCCACCA
# DNA 1: CAATCTGAATTCCGGTCTCCC
# DNA 2: TGGTGGCTACGACGGGATT
# B4: ACUAAAA (DNA:RNA)
# RNA: B2 RNA with G25A, G26C, C30A, G31A
# DNA 1: CAATCTGAATTCCGGTCTCCC
# DNA 2: TGGTGGCTACGACGGGATT
# B5: GCGGAGC (DNA:RNA)
# RNA: B1 RNA with C25G, C28G, U29A, A30G
# DNA 1: CAATCTGAATTCCGGTCTCCC
# DNA 2: TGGTGGCTACGACGGGATT
# B6: AUCUAGC (DNA:RNA)
# RNA: B3 RNA with G28U, G29A, U30G, A31C
# DNA 1: CAATCTGAATTCCGGTCTCCC
# DNA 2: TGGTGGCTACGACGGGATT
# B7: AAGAAGC (DNA:RNA)
# RNA: B1 RNA with C25A, C26A, C28A, U29A, A30G
# DNA 1: CAATCTGAATTCCGGTCTCCC
# DNA 2: TGGTGGCTACGACGGGATT
# B8: UUUAUGA (DNA:RNA)
# RNA: B3 RNA with A25U, C27U, G28A, G29U, U30G
# DNA 1: CAATCTGAATTCCGGTCTCCC
# DNA 2: TGGTGGCTACGACGGGATT
# B9: ACACUUA (DNA:RNA)
# RNA: B3 RNA with U26C, C27A, G28C, G29U
# DNA 1: CAATCTGAATTCCGGTCTCCC
# DNA 2: TGGTGGCTACGACGGGATT
# B10: CUGUGGA (DNA:RNA)
# RNA: B3 RNA with A25C, C27G, G28U, U30G
# DNA 1: CAATCTGAATTCCGGTCTCCC
# DNA 2: TGGTGGCTACGACGGGATT
# B11: UAGGACA (DNA:RNA)
# RNA: B3 RNA with A25U, U26A, C27G, G29A, U30C
# DNA 1: CAATCTGAATTCCGGTCTCCC
# DNA 2: TGGTGGCTACGACGGGATT
# B12: CACCGAC (DNA:RNA)
# RNA: B1 RNA with C26A, G27C, U29G
# DNA 1: CAATCTGAATTCCGGTCTCCC
# DNA 2: TGGTGGCTACGACGGGATT
# B13: UCAUUAC (DNA:RNA)
# RNA: B1 RNA with C25U, G27A, C28U
# DNA 1: CAATCTGAATTCCGGTCTCCC
# DNA 2: TGGTGGCTACGACGGGATT
# B14: GAAUUGG (DNA:RNA)
# RNA: B2 RNA with G26A, U27A, A28U, A29U, C30G
# DNA 1: CAATCTGAATTCCGGTCTCCC
# DNA 2: TGGTGGCTACGACGGGATT
# B15: AGUAGUG (DNA:RNA)
# RNA: B2 RNA with G25A, A29G, C30U
# DNA 1: CAATCTGAATTCCGGTCTCCC
# DNA 2: TGGTGGCTACGACGGGATT
# B16: UAUAUAG (DNA:RNA)
# RNA: B2 RNA with G25U, G26A, A29U, C30A
# DNA 1: CAATCTGAATTCCGGTCTCCC
# DNA 2: TGGTGGCTACGACGGGATT
# B17: UUCAACA (DNA:RNA)
# RNA: B3 RNA with A25U, G28A, G29A, U30C
# DNA 1: CAATCTGAATTCCGGTCTCCC
# DNA 2: TGGTGGCTACGACGGGATT
# B18: AAGACGU (DNA:RNA)
# RNA: B3 RNA with U26A, C27G, G28A, G29C, U30G, A31U
# DNA 1: CAATCTGAATTCCGGTCTCCC
# DNA 2: TGGTGGCTACGACGGGATT
# B19: CAACGCA (DNA:RNA)
# RNA: B3 RNA with A25C, U26A, C27A, G28C, U30C
# DNA 1: CAATCTGAATTCCGGTCTCCC
# DNA 2: TGGTGGCTACGACGGGATT
# B20: CUAUAGA (DNA:RNA)
# RNA: B3 RNA with A25C, C27A, G28U, G29A, U30G
# DNA 1: CAATCTGAATTCCGGTCTCCC
# DNA 2: TGGTGGCTACGACGGGATT
# B21: UUUGAUC (DNA:RNA)
# RNA: B3 RNA with A25U, C27U, G29A, A31C
# DNA 1: CAATCTGAATTCCGGTCTCCC
# DNA 2: TGGTGGCTACGACGGGATT
# B22: CUUGAAG (DNA:RNA)
# RNA: B2 RNA with G25C, G26U, A28G, C30A
# DNA 1: CAATCTGAATTCCGGTCTCCC
# DNA 2: TGGTGGCTACGACGGGATT
# B23: GAACCCA (DNA:RNA)
# RNA: B2 RNA with G26A, U27A, A28C, A29C, G31A
# DNA 1: CAATCTGAATTCCGGTCTCCC
# DNA 2: TGGTGGCTACGACGGGATT
# B24: GCGGAAA (DNA:RNA)
# RNA: B1 RNA with C25G, C28G, U29A, C31A
# DNA 1: CAATCTGAATTCCGGTCTCCC
# DNA 2: TGGTGGCTACGACGGGATT
# B25: CGAGUUG (DNA:RNA)
# RNA: B3 RNA with A25C, U26G, C27A, G29U, A31G
# DNA 1: CAATCTGAATTCCGGTCTCCC
# DNA 2: TGGTGGCTACGACGGGATT
# B26: CAGCGUC (DNA:RNA)
# RNA: B1 RNA with C26A, U29G, A30U
# DNA 1: CAATCTGAATTCCGGTCTCCC
# DNA 2: TGGTGGCTACGACGGGATT
# B27: UACGACA (DNA:RNA)
# RNA: B3 RNA with A25U, U26A, G29A, U30C
# DNA 1: CAATCTGAATTCCGGTCTCCC
# DNA 2: TGGTGGCTACGACGGGATT
# B28: UGCGAGU (DNA:RNA)
# RNA: B3 RNA with A25U, U26G, G29A, U30G, A31U
# DNA 1: CAATCTGAATTCCGGTCTCCC
# DNA 2: TGGTGGCTACGACGGGATT
# B29: GUCGUCC (DNA:RNA)
# RNA: B3 RNA with A25G, G29U, U30C, A31C
# DNA 1: CAATCTGAATTCCGGTCTCCC
# DNA 2: TGGTGGCTACGACGGGATT
# B30: ACGCCAA (DNA:RNA)
# RNA: B1 RNA with C25A, U29C, C31A
# DNA 1: CAATCTGAATTCCGGTCTCCC
# DNA 2: TGGTGGCTACGACGGGATT
# B31: CGGUAGC (DNA:RNA)
# RNA: B1 RNA with C26G, C28U, U29A, A30G
# DNA 1: CAATCTGAATTCCGGTCTCCC
# DNA 2: TGGTGGCTACGACGGGATT
# Biological target: T1, RBFOX1 RRM (Homo sapiens, UniProt Q9NWB1 109-208)
# T1 sequence: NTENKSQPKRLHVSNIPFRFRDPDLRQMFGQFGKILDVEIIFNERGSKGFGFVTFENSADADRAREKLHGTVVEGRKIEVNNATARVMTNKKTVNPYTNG
# Assay: EMSA; HiTS-Eq, 1 nM pool, 10 min; buffer printed only for the single-RNA assays: 10 mM Tris pH 7.5, 150 mM NaCl, 3.4 mM EDTA, 0.001% NP-40, 30 C
# Conditions: tags: His6 N-terminal (pET28a); label: 5' 32P
# Summary of the method: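 Purified RbFox RRM, wild type or mutant, was incubated for 10 min in 50 µL with 1 nM of a 5′-radiolabelled RNA pool carrying 7 randomized nucleotides, whose flanks were annealed to DNA oligonucleotides, over a series of increasing protein concentrations. Unbound RNA was resolved on 8% native PAGE, cut out, reverse-transcribed, barcoded by PCR and sequenced on an Illumina HiSeq 2500. Relative association constants were derived from changes in read counts for each RNA species versus the control reaction and normalised to the cognate motif.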
row,Binder,binding signal
1,B1,0.00667 KA relative to UGCAUGU
2,B2,0.00744 KA relative to UGCAUGU
3,B3,0.00891 KA relative to UGCAUGU
4,B4,0.00144 KA relative to UGCAUGU
5,B5,0.0117 KA relative to UGCAUGU
6,B6,0.00476 KA relative to UGCAUGU
7,B7,0.00325 KA relative to UGCAUGU
8,B8,0.0154 KA relative to UGCAUGU
9,B9,0.00118 KA relative to UGCAUGU
10,B10,0.00908 KA relative to UGCAUGU
11,B11,0.00163 KA relative to UGCAUGU
12,B12,0.00223 KA relative to UGCAUGU
13,B13,0.00273 KA relative to UGCAUGU
14,B14,0.0144 KA relative to UGCAUGU
15,B15,0.0106 KA relative to UGCAUGU
16,B16,0.0105 KA relative to UGCAUGU

row,Binder,binding signal
1,B17,0.00131 KA relative to UGCAUGU
2,B18,0.00364 KA relative to UGCAUGU
3,B19,0.00465 KA relative to UGCAUGU
4,B20,0.00833 KA relative to UGCAUGU
5,B21,0.0148 KA relative to UGCAUGU
6,B22,0.0157 KA relative to UGCAUGU
7,B23,0.00229 KA relative to UGCAUGU
8,B24,0.00927 KA relative to UGCAUGU
9,B25,0.0155 KA relative to UGCAUGU
10,B26,0.00509 KA relative to UGCAUGU
11,B27,0.00182 KA relative to UGCAUGU
12,B28,0.0291 KA relative to UGCAUGU
13,B29,0.0149 KA relative to UGCAUGU
14,B30,0.00192 KA relative to UGCAUGU
15,B31,0.0146 KA relative to UGCAUGU
